Results on 68 sequences are retold here after the supplement of paper PMC5655136.

Read counts after selection give these values, which scatter widely.
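Also: shRNA barcodes quantified by deep sequencing of PCR amplicons from cellular DNA, counts expressed as percent of each subpool, ratio averaged over two biological duplicates.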

The first data set concerns NB7. Put plainly: fold depletion of shRNA, plasmid library share / infected cells without Dox share (9 days) (ratio); higher = more depleted after infection (more toxic, leaky expression from a Tet-inducible vector; NB7 is a neuroblastoma line without caspase-8). The following applies: shRNA pool: CD95L ORF + CD95L 3'UTR + Venus libraries.
On to AAGTATACTTCCGGGGTCAAT, for which the “fold depletion of shRNA” value came to 5.24.

On to CCTCTGGAATGGGAAGACACC, for which the “fold depletion of shRNA” value was found to be 4.92.

As to AGGATTGGGCCTGGGGATGTT, the “fold depletion of shRNA” value came to 29.4.

Consider TACATGAGGAACTCTAAGTAT, for which the “fold depletion of shRNA” value stood at 0.586.

On to TTTAAGGGATGGAAAAGGAAG, for which the “fold depletion of shRNA” value amounted to 1.3.

With GAAGCATGAAAAAGCAGCTAC, the “fold depletion of shRNA” value stood at 1.11.

For GAGCTCTCTCTGGTCAATTTT, the “fold depletion of shRNA” value stood at 0.697.

Regarding TGAAGTACATATTAGGAAAAT, the “fold depletion of shRNA” value is 0.535.

ATGGTTCTGGTTGCCTTGGTA: the “fold depletion of shRNA” value was 3.27.

As for AAGAGAGATGTTTTGGGGACT, the “fold depletion of shRNA” value is 1.17.

On to TCATTTCATTCCTAACACAGC, for which the “fold depletion of shRNA” value was 2.82.

As to CATGTAATAAAAAGTATATGT, the “fold depletion of shRNA” value came out at 0.502.

ATTTCCAGTGCAATTGTAGGG: the “fold depletion of shRNA” value was 1.24.

As for TAAGGGATGGAAAAGGAAGAC, the “fold depletion of shRNA” value was determined as 0.271.

Consider GTGATGATGGAGGGGAAGATG, for which the “fold depletion of shRNA” value came to 1.96.

For GGTAGGATTGGGCCTGGGGAT, the “fold depletion of shRNA” value was 1.34.

For the sequence CCTCAACTCACCTAATGTTTA, the “fold depletion of shRNA” value turned out to be 1.14.

With TTGGTCAAGATTTTGAATGCT, the “fold depletion of shRNA” value came out at 6.78.

As for AAGAGAAGCACTTTGGGATTC, the “fold depletion of shRNA” value was 3.55.

On to CGAGCTGGACGGCGACGTAAA, for which the “fold depletion of shRNA” value was 1.09.

With GGCTGTACTTTGTATATTCCA, the “fold depletion of shRNA” value turned out to be 3.84.

Take CAAGTCCGCCATGCCCGAAGG: the “fold depletion of shRNA” value came out at 1.79.

Regarding ATGGACGAGCTGTACAAGTAA, the “fold depletion of shRNA” value was determined as 1.5.

GTGAAGTACATATTAGGAAAA: the “fold depletion of shRNA” value is 0.607.

Take GCCCATCCTGGTCGAGCTGGA: the “fold depletion of shRNA” value came to 1.35.

As to CCTTGTGATCAATGAAACTGG, the “fold depletion of shRNA” value was 1.21.

For CTGGGGCACAAGCTGGAGTAC, the “fold depletion of shRNA” value was found to be 0.771.

On to ATGAAAAAGCAGCTACCAGGT, for which the “fold depletion of shRNA” value was 0.672.

On to ACACTCATCTTAGTGCCTGAG, for which the “fold depletion of shRNA” value is 2.78.

Regarding CAACCACTACCTGAGCTACCA, the “fold depletion of shRNA” value amounted to 5.

In the case of GCCCTGAGCAAAGACCCCAAC, the “fold depletion of shRNA” value was 1.07.

With TGGGAAGACACCTATGGAATT, the “fold depletion of shRNA” value stood at 1.

For the sequence GAACCACAGCACAGGCCTGTG, the “fold depletion of shRNA” value worked out at 0.511.

Regarding AAGGAGCTGGCAGAACTCCGA, the “fold depletion of shRNA” value worked out at 3.72.

As to ACCCCAACGAGAAGCGCGATC, the “fold depletion of shRNA” value worked out at 3.09.

With CTCACCTCTCAAGGTGGGCCT, the “fold depletion of shRNA” value stood at 1.58.

As to TCTTACCAGTGCTGATCATTT, the “fold depletion of shRNA” value amounted to 1.27.

As to CTTCCACCTACAGAAGGAGCT, the “fold depletion of shRNA” value was found to be 2.02.

Consider TAAACGGCCACAAGTTCAGCG, for which the “fold depletion of shRNA” value was found to be 1.16.

As for TATATGTCAACGTATCTGAGC, the “fold depletion of shRNA” value came out at 1.73.

Take TTTGTGAAATGAAAACATGTA: the “fold depletion of shRNA” value is 1.82.

TGGAAAAGGAAGACTAGAGGC: the “fold depletion of shRNA” value worked out at 31.

For the sequence GTGTCCGGCGAGGGCGAGGGC, the “fold depletion of shRNA” value is 0.709.

In the case of TCATGGTTCTGGTTGCCTTGG, the “fold depletion of shRNA” value is 1.87.

As for CCTCAAGGGGGACTGTCTTTC, the “fold depletion of shRNA” value was 0.305.

CATCAAGGCCAACTTCAAGAT: the “fold depletion of shRNA” value is 1.25.

Turning to TCAAGGTCCATGCCTCTGGAA, the “fold depletion of shRNA” value came to 2.15.

Take GTGTGTGTGTGTATGACTAAA: the “fold depletion of shRNA” value is 1.31.

As for CCTGAGGATTTAAGGGATGGA, the “fold depletion of shRNA” value stood at 1.92.

As to TAGATATTGTGAAGTACATAT, the “fold depletion of shRNA” value is 0.573.

Consider AAGCTGCCCGTGCCCTGGCCC, for which the “fold depletion of shRNA” value was determined as 0.76.

As to CAGAACACCCCCATCGGCGAC, the “fold depletion of shRNA” value is 2.34.

For GGTCAATTTTGAGGAATCTCA, the “fold depletion of shRNA” value came out at 2.27.

With CAAATGGAGGAATATGACGGA, the “fold depletion of shRNA” value was found to be 3.14.

For TTTCCTATAATATAATAAATA, the “fold depletion of shRNA” value was 0.699.

For the sequence CCTGCCCCTGAGCCACAAGGT, the “fold depletion of shRNA” value was 3.36.

For the sequence CGGCCTGCAGTGCTTCGCCCG, the “fold depletion of shRNA” value is 0.727.

As to GGGATTCTTTCCATTATGATT, the “fold depletion of shRNA” value amounted to 1.35.

Turning to CCACCCCTGAAGAAGAGAGGG, the “fold depletion of shRNA” value stood at 2.07.

Regarding AGATAAGCAAGAGAGATGTTT, the “fold depletion of shRNA” value was 1.62.

Regarding TCATCTTTGGAGAAGCAAATA, the “fold depletion of shRNA” value stood at 2.53.

In the case of GAGAAGCATGAAAAAGCAGCT, the “fold depletion of shRNA” value worked out at 0.483.

As to GCGAGGAGCTGTTCACCGGGG, the “fold depletion of shRNA” value amounted to 1.07.

Turning to TATCTGAGCTCTCTCTGGTCA, the “fold depletion of shRNA” value came to 3.1.

Still in this data set, the particulars now being: shRNA pool: CD95 ORF + CD95 3'UTR + Venus libraries.
Consider GTCATATTATACAATATTTCA, for which the “fold depletion of shRNA” value was 0.755.

For TTTTCTTCCAAATGCAGAAGA, the “fold depletion of shRNA” value was 0.903.

In the case of AATATAGGTAAAAGTACGTAA, the “fold depletion of shRNA” value stood at 0.933.

Regarding TCTTATTTTTCCCCCACCCCC, the “fold depletion of shRNA” value was 5.04.
